# Results from the supplement of paper PMC11417369.
# Some of the results follow.
# Tested on: PfHDP1 homeodomain (GST-tagged)
# Experiment: gcPBM binding intensity (ln(normalized median fluorescence intensity)); higher = stronger DNA binding
# How it was run: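 The binding buffer was 1× PBS containing 1% milk, 0.2 mg/ml BSA, 0.5% salmon testes DNA and 0.03% Triton X-100. In it, GST-tagged P. falciparum DNA-binding domains expressed in E. coli were applied for 1 h to an Agilent 4 × 180k array of primer-extended double-stranded 36-bp intergenic genomic probes plus negative controls. Binding intensity, read with Alexa488 anti-GST antibody and a 488 nm scan, is the highest Masliner-normalised natural-log median intensity across replicate spots of either probe orientation.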
row,Sequence,gcPBM binding intensity (ln)
1,TTAAACTTGAAACACACACACACACCCATATAAAAA [CACACA_site758],7.17
2,TAATAATAGAGACACACACACATTTTTAATAATACA [CACACA_site6691],6.77
3,CTTTGTAGTTGGTCCACACACATATATGGAAGAATA [CACACA_site1280],6.79
4,ATATATATATATATATATATATATATATTTATATAT [GTGCAC_negctrl_site180],9.28
5,TAAAAGGAACAAAATTGTACTTAAAAGACAAAGTTA [XGTACX_site7661],5.62
6,ACACAAAAATAAAAATGTACAAATTAAAAAAAATGA [XGTACX_site2083],6.73
7,CACACCATATAATATATATATATGTATATATTTATA [CACACA_negctrl_site397],6.58
8,TTTTTTTTTTTTTTGTCACACACCTTCATAAGAAAA [CACACA_site1166],6.59
9,ATATATATTAATAGTTGTACTATTATAATATTACAA [XGTACX_site1213],6.22
10,ATCCTGAACAGAATATGTATAAACAGAAGGAAACAA [CACACA_negctrl_site1805],7.03
11,AAAAAAAAAAAAAAAAGTACAAAAAAAAAAAAAAAA [XGTACX_site4549],6.51
12,TACACGCATAGACACACACACACACGCATATAAATA [CACACA_site6446],7.22
13,TATACCTATAGACACACACACATAAATAGATATATA [CACACA_site6748],6.85
14,TTTTTTTTTTTAAATAGTACACATATATATATATAT [XGTACX_site6983],9.06
15,AGTTTACACCTTGTGAGTACATACATACATATATAT [XGTACX_site8793],6.65
16,TTTTATTTTTCTAGTAGTACTTCTTTTTATAATATA [XGTACX_site1181],6.85
17,AGAAAAATTCTAAGAACATGCAAAAAAATAAAAAAA [TGCATGCA_site293],6.6
18,TTAACATTTTAAAAATGTACATTTATATACATAAAT [XGTACX_site922],6.46
19,AAAAAATAAATAAATATACACACCATATATATATTT [CACACA_site2854],6.46
20,TCTAATGTAATGCATACACACAACTATCCATCAAAA [CACACA_site534],6.6
21,TATATATATATATGAGTGCATATGTGTAATATAAAA,9.65
22,TACAAAATATTTTACACACACATATAAATACCTATA [CACACA_site7272],6.97
23,TATATAATTATTTGATGTACACTACAATGTATTTGT [XGTACX_site7991],6.76

row,Sequence,gcPBM binding intensity (ln)
1,TTATGTTCTTAATGCACACTTATAAGTATCTTATAA [CACACA_site1394],9.72
2,AATACAATATAAAGGTGTACATATATATATATATAT [XGTACX_site68],9.26
3,AAAAAAAAAAAAAAAACACACACAACACCCATACCT [CACACA_site9208],6.86
4,ATGTAGATAGATAGGGTGCTAAAAATAAGATTTATA [GTGCAC_site9602],6.67
5,TATAAGCAAAGACACACACACATATAAATATAAATA [CACACA_site7740],6.72
6,TATAAAATATATATCTGTACGTATTTTATTTTTTAT [XGTACX_site6257],6.14
7,ATAATACACAAGCACACACACACACGGATATTTATA [CACACA_site6714],7.31
8,ATAATTATATTTTATTCACACATCGTTATATAGTAA [CACACA_site4743],6.51
9,AATTATTCATAAAATGCATGTACATGGTTTAATATT [TGCATGCA_site87],6.65
10,ATACATGTTTTATGTGCACACAAAGTTGTTATGAGG [CACACA_site4032],10.8
11,TCGTAAACTTTATGCACACACATATACATATTTCAT [CACACA_site739],10.1
12,ACATGATAAATAGTCACACATAAATATAATATATAT [CACACA_site5207],6.69
13,ATTATGGATACATAAACACACATATATATAAAAAAA [CACACA_site4303],6.86
14,TATGTATATTTAAATGCATGTGATTATTTTTGACTT [TGCATGCA_site568],6.19
15,TTATAAATTTAAAAAGTGCATAATAATAACAAAAAG,8.81
16,ACTTTTTTTTTTTTTTTAGATTACATAAATATAAAT [CACACA_negctrl_site139],6.56
17,AACACAATAAAAATTAAAAATGTTAAGTAAATATAA [GTGCAC_negctrl_site60],6.21
18,TTATAATTTAATAAATGTACATAAATAATATACATA [XGTACX_site7271],6.14
19,AGACAATATCTTATTTGTACATATGTATTCCTCATA [XGTACX_site5757],6.93
20,TATTTTTATTTTCCTTCACACATTTTTTATATTTTT [CACACA_site5830],6.7
21,AAAAAAAAAAAAAAAACACACATATAGATTATTGTA [CACACA_site7797],6.61
22,TTTTAATTTATCGACACACGCATGAATAGAAATTAG [CACACA_site3361],6.24
23,AAGTACAATTCATGTATGCACTTTATTATATTTTAT,7.33

row,Sequence,gcPBM binding intensity (ln)
1,TATAATATGTATATCTGTACATATTTTAAATCTAAT [XGTACX_site2426],5.97
2,AAGATAAAATAATAAAGTACACATATAAATTGAAAA [XGTACX_site2113],6.56
3,TTTCTTTTTAAATAATAATGTATAATAAAAAGTTCA [TGCATGCA_negctrl_site195],6.08
4,TTTGTTTGATATATGTGTACATATATATATTATGCT [XGTACX_site3522],6.76
5,AGAAAGTAAAGCTGTTGTACTATTATATATATTTTA [XGTACX_site8090],6.38
6,GTAATACCCAAACACACACACATACCCATATATATA [CACACA_site5510],7.1
7,GAGAGGATCATCAATTCACACACATAAAAATGAAGT [CACACA_site9010],6.23
8,AACATATGATTAAACTGTACAAGAAAAATATAACAT [XGTACX_site4477],7.46
9,ATAGTTTTTCCAATTCAAAAAAAAAAAAAAAAAAAA [CACACA_negctrl_site969],6.02
10,TAAAAATATTATAATGCATGCAAAATATTGTTATAA [TGCATGCA_site244],6.25
11,AAAGTATAAATAAATACACACATATTTATTTATATA [CACACA_site7375],6.42
12,TATTATAGTATATATTGTACATATATATATTTTTTA [XGTACX_site8831],6.5
13,ATAATAATATATAGTACACACAAAAATGGAAGTAAA [CACACA_site3318],7.18
14,TATATATAAGATTGATGTACGATTTTGGTGTCTTAT [XGTACX_site2611],6.25
15,TGTTATGAGAACAGCACACAAGCTACATCATATATA [CACACA_site870],6.3
16,GAAATTATAAATTGGACACACACATAAAAAATATGT [CACACA_site7957],6.28
17,TTCCTATTTCCTATGTGTACTTATAAATAAGTGTCT [XGTACX_site3725],6.92
18,TCCGCATGTACATGGGTGCACATAACACCCATTTAA [GTGCAC_site9881],8.53
19,CTTTCTATATAAAATCGTACATATATAATATTATAT [XGTACX_site5807],6.62
20,TAAATGTCTGTTAATGCACACGATATGTCTATATAT [CACACA_site2352],9.69
21,TATATTAAGAAACACACACACATATATATATATATA [CACACA_site1609],9.36
22,TATTTTTTAAAAAAATGTCATAAAATTTCTTTTTTC [XGTACX_negctrl_site271],5.89
23,AGAAAAAAATAATGTACACACACATATATGTTTATA [CACACA_site7946],6.65

row,Sequence,gcPBM binding intensity (ln)
1,ATATACAAAGGATTAACACACATATTATTATATATA [CACACA_site1880],6.4
2,ATATATATATATATGTGTACTTATATATTTAAAAAA [XGTACX_site1761],9.13
3,TTATACCTGATTTAGGTGCTATAAATTTGTGTTTTT,6.25
4,ATATATATATATATATATATTTATATGTGAAAACCC [CACACA_negctrl_site845],9.28
5,GTAATTTTATATGGTTGTACATATATATATATATAT [XGTACX_site6659],9.48
6,CAACAACAAAAAAAAAAATAATAATAATAAAAAATA [TGCATGCA_negctrl_site271],6.37
7,CGCATAAAGACAAGAACACACATATATATTGTAGTA [CACACA_site5938],6.32
8,TTTTTGTTACCTATTGTGCACTTCATATAAATTAAA,10.9
9,TATTAAAAGGTTAAAGCATGCATACATATATATGTT [TGCATGCA_site865],6.9
10,AATAATAAATAAAAATGTACACATACATTTCTATCC [XGTACX_site7057],6.19
11,TATAAATTTTTATTTACATGCAGTTATTATTTCCAT [TGCATGCA_site41],6.33
12,ATATATATATATATATGTACATATTTATATTGTAAA [XGTACX_site8878],9.35
13,TAATGTAATACATATTGTACACATACATATATATTT [XGTACX_site7531],6.61
14,GGGTATACCAATATAACACACATATATCTATAATAT [CACACA_site6348],6.45
15,ATATATAATCATCACACATGCAGCCCTGATGAAAAA [TGCATGCA_site687],6.64
16,ATTTTTACATAGGAAGCATGCATATTTTAAAAATAA [TGCATGCA_site1046],6.49
17,CTAACACTAATTTTTTGTACACAATATGTAAATAAA [XGTACX_site6424],6.63
18,CATGTGTTCTATATTTATGTCTAACTTTTTAATTAA [CACACA_negctrl_site904],6.44
19,TTATTTCTGAATATTTTTTTTTTTTCTTCTTTTTTA [CACACA_negctrl_site815],5.85
20,TATATATATATATATTGTACGAACCTTTTTTTTTTT [XGTACX_site4169],9.17
